Reference: PubChem BioAssay AID1745853 (National Center for Advancing Translational Sciences (NCATS), 2022)
Some of the results follow. Further columns of the screen follow, without active or inactive calls.

Experiments:
Experiment in all cases: Primary Screen for Target Class Profiling of Small Molecule Inhibitors of Methyltransferases
[1] = biological target: Glycine N-methyltransferase (Homo sapiens) (UniProt Q14749); details: purified enzyme, MTase-Glo SAH luminescence; measured here: GNMT inhibition; at 40 µM; stronger effect = lower value
Outline: (§1)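 Each enzyme was assayed with SAM and its substrate. SAH formation detected by MTase-Glo luminescence; single-point 40 uM screen[…].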

[2] = biological target: Guanidinoacetate N-methyltransferase (Homo sapiens) (UniProt Q14353); details: purified enzyme, MTase-Glo SAH luminescence; measured here: GAMT inhibition; at 40 µM; stronger effect = lower value
Outline: as §1

[3] = biological target: Histamine N-methyltransferase (Homo sapiens) (UniProt P50135); details: purified enzyme, MTase-Glo SAH luminescence; measured here: HNMT inhibition; at 40 µM; stronger effect = lower value
Outline: as §1

[4] = biological target: Nicotinamide N-methyltransferase (Homo sapiens) (UniProt P40261); details: purified enzyme, MTase-Glo SAH luminescence; measured here: NNMT inhibition; at 40 µM; stronger effect = lower value
Outline: as §1

[5] = biological target: Phenylethanolamine N-methyltransferase (Homo sapiens) (UniProt P11086); details: purified enzyme, MTase-Glo SAH luminescence; measured here: PNMT inhibition; at 40 µM; stronger effect = lower value
Outline: as §1
% is set by controls: 0 for no effect and ±100 for the full control effect.

Row | SMILES | activity change, negative = inhibition [1] | activity change, negative = inhibition [2] | activity change, negative = inhibition [3] | activity change, negative = inhibition [4] | activity change, negative = inhibition [5]
1 | CC(C)CCn1c(=O)c2ccccc2n2c(=O)n(CC(=O)N3CCN(c4ccc(F)cc4)CC3)nc12 | 3.96% | 0.576% | 2.25% | -5.38% | 5.79%
2 | CC(=O)N1c2ccccc2C2(O)CC3C(=O)NC(CC(C)C)C(=O)N3C12 (stereo not drawn) | -3.61% | 1.51% | 4.71% | -10.7% | 4.33%
3 | CC(=O)O[C@@H]1[C@H](O[C@@H]2O[C@@H](CO)[C@H](O)[C@H]2O)[C@@H](O[C@@H]2O[C@@H](C)[C@H](O[C@@H]3OC[C@@H](O)[C@H](O)[C@H]3O)[C@@H](O)[C@H]2O)[C@H](OC(=O)[C@]23CCC(C)(C)C[C@H]2C2=CCC4[C@@]5(C)CC[C@H](O[C@@H]6O[C@H](C(=O)O)[C@@H](O)[C@H](O)[C@H]6O[C@@H]6O[C@H](CO)[C@H](O)[C@H](O)[C@H]6O)[C@@](C)(C=O)C5CC[C@@]4(C)[C@]2(C)CC3)O[C@@H]1C (stereo partly drawn) | 0% | 19% | 8.85% | 7.49% | 6.71%
4 | CC1(C)[C@H](Cc2cc(CN3CCCCC3)on2)C[C@@H]1N | -1.31% | 1.64% | -1.87% | -1.97% | 9.36%
5 | CCOC(=O)c1cc2n(n1)CC(C)(C(=O)NC1CCC(C)CC1)N(c1ccc(C)c(C)c1)C2=O (stereo not drawn) | 4.43% | 0.514% | 3.97% | -2.42% | 4.65%
6 | c1cc2c(cc1OC1CNC1)OCO2 | -1.81% | -1.59% | -3.11% | -1.94% | -5.29%
7 | CN(Cc1cc(C[C@@H]2C[C@H](NC(=O)C(C)(C)C)C2(C)C)no1)c1ccccc1 | -4.12% | 2.57% | -1.73% | -22.2% | 4.65%
8 | O=c1onc2cnc3ccccc3n12 | -31.5% | -1.71% | -7.51% | -17.5% | -3.62%
9 | CC(C)(C)OC(=O)N[C@H]1CCCCCC=C[C@@H]2C[C@@]2(C(=O)NS(=O)(=O)C2CC2)NC(=O)[C@@H]2C[C@@H](OC(=O)N3Cc4cccc(F)c4C3)CN2C1=O | -9.11% | 6.05% | 7.63% | -16.4% | 0.571%
10 | COc1cccc(CN2CC[C@@](O)(C3CC3)[C@H](C)C2)c1OC | -2.59% | -2.35% | -1.39% | -5.38% | -0.421%
11 | CC(C)c1ccc(NS(=O)(=O)c2ccc3c(c2)n(C)c(=O)n3C)cc1 | -6.55% | 0.786% | -3% | -22.5% | -6.63%
12 | Cc1cccc(O[C@H]2COCCN(c3nc4ccccc4o3)C2)n1 | -7.1% | -4.72% | -3.47% | -49.2% | -3.96%
13 | CC1CCCN(C(=O)Cn2c(=O)oc3cc(S(=O)(=O)N4CCCCC4)ccc32)C1 (stereo not drawn) | 0.6% | 2.65% | 9.27% | 15% | -0.599%
14 | COc1cccc(S(=O)(=O)N2CCC(c3noc(-c4ccccn4)n3)C2)c1 (stereo not drawn) | -3.07% | -1.51% | -0.527% | -9.91% | -3.89%
15 | CC(=O)N[C@H]1[C@H](O[C@H]2CC[C@@]3(C)C(CC[C@]4(C)C3CC=C3C5CC(C)(C)CC[C@]5(C(=O)O)C(O)C[C@]34C)C2(C)C)O[C@H](CO[C@@H]2O[C@H](C)[C@H](O)[C@H](O)[C@H]2O[C@@H]2OC[C@@H](O)[C@H](O)[C@H]2O)[C@@H](O)[C@@H]1O (stereo partly drawn) | -0.794% | -1.84% | 4.68% | -10.1% | -1.71%
16 | c1ccc(CNc2ncc(-c3ccc(N4CCOCC4)cc3)c3c2OCC3)cc1 | -35% | -31.2% | -7.35% | -17.5% | -35.1%
17 | C[C@@]12CO[C@@H](Cc3ccccc3)O[C@@H]1CC[C@]1(C)C2CC[C@@H](O)[C@H]1CC(=O)NCc1cc(F)cc(F)c1 (stereo partly drawn) | -4.79% | -5.16% | -1.8% | -8.03% | -4.99%
18 | Cc1ccc(Nc2nc(C)cc3nn(CC(=O)Nc4ccc5c(c4)OCCO5)c(=O)n23)cc1 | 13.1% | 2.27% | 8.35% | 3.89% | 4.01%
19 | O=C1CN(Cc2ccccc2Cl)S(=O)(=O)c2ccccc2N1Cc1ccc(F)cc1 | 2.14% | 0.626% | 10.4% | -5.01% | -3.84%
20 | COC(=O)CC(O)C1OC(c2ccccc2)C(O)C1O (stereo not drawn) | -3.04% | -2.57% | 0.924% | -12.5% | 3.32%
21 | COC(=O)Cn1c(=O)oc2cc(S(=O)(=O)NCCN3CCOCC3)ccc21 | 5.1% | 0% | 9.41% | 6.47% | 5.17%
22 | Cn1c(=O)c2ccc(C(=O)NC3CCCCC3)cc2n2c(=O)n(CC(=O)NC3CCCC3)nc12 | 2.89% | 2.74% | -0.349% | 0.733% | 2.27%
23 | C[C@]12CC[C@@H]3c4ccc(OC(=O)c5ccccc5)cc4CC[C@H]3[C@@H]1CC[C@@H]2O | 6.36% | 3.73% | 8.73% | -12.8% | -4.97%
24 | CC(O)CCc1ccc(O[C@@H]2O[C@H](CO)[C@@H](O)[C@H](O)[C@H]2O)cc1 (stereo partly drawn) | 1.48% | 2.43% | 6.27% | -7.25% | -2.34%
25 | CC(=O)c1c(C)cc(O[C@@H]2O[C@H](CO)[C@@H](O)[C@H](O)[C@H]2O)cc1O | 1.43% | -3.11% | 4.31% | -12.1% | 1.71%
26 | COc1ccc(Br)cc1CNC(=O)c1cc2n(n1)CC(C)(C(=O)NCc1ccccc1)N(C)C2=O (stereo not drawn) | 4.62% | 0% | 5.99% | 3.95% | 4.78%
27 | CCCn1c(=O)c2ccc(C(=O)NC3CCCCC3)cc2n2c(=O)n(C)nc12 | -5.44% | -9.31% | -6.12% | -7.07% | -6.53%

Row | SMILES | activity change, negative = inhibition [1] | activity change, negative = inhibition [2] | activity change, negative = inhibition [3] | activity change, negative = inhibition [4] | activity change, negative = inhibition [5]
28 | Cc1nnc(N2CCC3(CCC(=O)N(CCCN(C)C)C3)CC2)c2ccccc12 | -19.3% | -4.65% | -9.36% | -6.75% | -12.4%
29 | CN(c1nccc(=O)[nH]1)C1CCN(c2nc3ccccc3n2Cc2ccc(F)cc2)CC1 | -5.12% | -0.499% | 2.93% | -47.2% | 0.258%
30 | COc1ccc(OC)c2c1cc1n2CC(C)(C(=O)NC2CCCCCC2)N(Cc2ccccn2)C1=O (stereo not drawn) | -36.3% | -13.1% | -5.18% | -25.8% | -43.9%
31 | CC(C)OCCCNc1nc2c(S(=O)(=O)c3ccc(Br)cc3)nnn2c2ccccc12 | -4.03% | -5.14% | -1.1% | -3.13% | -5.3%
32 | CCn1c(CN2CCN(c3nc(C)cnc3C)CC2)nnc1C1CC(N)C1 (stereo not drawn) | -6.16% | -2.33% | -2.1% | -11.3% | -2.62%
33 | COC(=O)[C@H](CC1CCCCC1)NC(=O)[C@@H]1CN(C(=O)c2ccc(N(C)C)cc2)CCN1C(C)=O | -1.53% | -5.14% | -1.07% | -7.79% | -1.69%
34 | CC(C)c1ccc(S(=O)(=O)c2nnn3c2nc(NC2CCCC2)c2ccccc23)cc1 | -2.93% | 1.43% | -3.81% | -3.95% | -7.33%
35 | Cc1nc(C(=O)N2CCC[C@H]2Cc2nnc(-c3ccccc3)o2)c(-c2ccccc2F)s1 | -3.01% | 6.48% | 9.16% | -19% | 0.343%
36 | CCCCN1C(=O)c2cc(C(=O)NCCc3cccs3)nn2CC1(C)C(=O)NC1CCCC1 (stereo not drawn) | 2.86% | 0% | -21% | 4.7% | 2.43%
37 | O=C(NCCN1C(=O)C2(CCCCC2)C1c1ccccc1)NCc1ccccc1 (stereo not drawn) | -10.3% | 3.68% | -1.57% | -5.3% | -0.085%
38 | CCCn1c(=O)c2ccccc2n2c(SCC(=O)Nc3cccc(C)c3)nnc12 | -3.22% | 0% | 9.97% | -3.19% | -7.56%
39 | CCN(CCN(C)C)C(=O)CNCc1cc(C(=O)O)ccn1 | – | 2.78% | – | -10.8% | -0.3%
40 | CCc1noc(-c2cn(C3CCN(C(=O)COc4ccccc4)C3)nn2)n1 (stereo not drawn) | -4.25% | -10% | -3.5% | -11.4% | -6.7%
41 | CCCCNc1nc2c(S(=O)(=O)c3ccc(C)cc3)nnn2c2ccccc12 | -3.18% | 1.49% | -2.61% | 4.06% | -6.43%
42 | C[C@@H]1O[C@@H](O[C@H]2[C@H](OC(=O)[C@]34CCC(C)(C)C[C@H]3C3=CCC5[C@@]6(C)C[C@H](O)[C@H](O[C@@H]7O[C@H](CO)[C@@H](O[C@H]8OC[C@](O)(CO)[C@H]8O)[C@H](O)[C@H]7O)[C@@](C)(CO)C6[C@H](O)C[C@@]5(C)[C@]3(C)C[C@H]4O)OC[C@H](O)[C@@H]2O)[C@H](O)[C@H](O)[C@H]1O[C@@H]1OC[C@@H](O)[C@H](O[C@@H]2OC[C@](O)(CO)[C@H]2O)[C@H]1O (stereo partly drawn) | 0% | 2.29% | 5.97% | -7.74% | 8.23%
43 | COc1cccc([C@@H]2CCN(Cc3cn[nH]c3C(=O)O)C[C@H]2O)c1 | -4.52% | -8.93% | -3.62% | -11.4% | -13.1%
44 | CC(=O)c1ccc2c(c1)C(O)C(C(C)(C)O)O2 (stereo not drawn) | 3.04% | 3.81% | 10.2% | -8.54% | -0.228%
45 | COc1ccc(-c2cc3n(n2)CC(C)(C(=O)NCc2ccccc2OC)N(c2ccc(C)c(Cl)c2)C3=O)cc1 (stereo not drawn) | 3.19% | 2.65% | 0.723% | 0.89% | -3.06%
46 | O=C1CCN(Cc2cccc(F)c2)CCCCCCN1 | -3.4% | -6.21% | -1.14% | -1.97% | -2.21%
47 | CC(C)Cn1c(=O)c2ccc(C(=O)NC3CCCC3)cc2n2c(=O)n(Cc3ccccc3Cl)nc12 | 6.08% | 1.41% | 6.01% | 3.66% | 8.16%
48 | CN1C(=O)c2cc(C(=O)NCCSCc3ccco3)nn2CC1(C)C(=O)NCc1ccc(F)cc1 (stereo not drawn) | -6.84% | -2.02% | 3.5% | -5.11% | -3.71%
49 | COC(=O)c1cc2n(n1)CC(C)(C(=O)NC1CCCCCC1)N(c1ccc(C)cc1C)C2=O (stereo not drawn) | 2.56% | 0% | -1.77% | 7.23% | 3.37%
50 | Cc1nnc(-c2cc(-c3cnn(C)c3)ccn2)n1-c1ccccc1 | -3.95% | -1.41% | -16.7% | -2.27% | -1.75%
51 | Cc1cccc(N2C(=O)c3cc4occc4n3CC2(C)C(=O)NC2CCCCCCC2)c1C (stereo not drawn) | -1.92% | 5.07% | 3.48% | 1.79% | -1.04%
52 | CN1C(=O)c2cc(C(=O)N3CCOCC3)nn2CC1(C)C(=O)NC1CCCCCC1 (stereo not drawn) | 0.613% | 0.742% | 3.31% | 8.61% | 2.9%
53 | CC1(C(=O)NC2CCCCCC2)Cn2c(nc3ccccc32)C(=O)N1Cc1ccccc1Cl (stereo not drawn) | -4.56% | -1.91% | -0.538% | -8.05% | -10.6%
